The source of these data is the antibiotic and cytotoxicity screens of Wong et al. (2023).

The other results are listed elsewhere or left out.

The subject of one assay is HSkMC. The experiment in a line: cytotoxicity call (relative viability < 0.9). The conditions noted are these: 10 µM.
The next assay has as its system HepG2. Put plainly: cytotoxicity call (relative viability < 0.9). The conditions noted are these: 10 µM.
For a further assay, the system named is S. aureus RN4220. The experiment in a line: growth inhibition call (relative growth <= 0.2). The conditions noted are these: 50 µM.

For `C[C@@H]1CN([C@@H](C)CO)C(=O)Cc2cc(NC(=O)Nc3ccc4c(c3)OCO4)ccc2O[C@@H]1CN(C)Cc1ccc(C(=O)Nc2ccccc2N)cc1`, the cytotoxicity call in the assay with HSkMC was “inactive”. For the same molecule, in the assay on HepG2, the cytotoxicity call was “active”. Further, the growth inhibition call in the assay with S. aureus RN4220 was “inactive”.
For `C[C@H]1CN([C@@H](C)CO)C(=O)c2cc(C#CC(C)(C)O)cnc2O[C@@H]1CN(C)C(=O)CN(C)C`, the cytotoxicity call in the assay with HSkMC and in the assay with HepG2 was “inactive” throughout. In the assay on S. aureus RN4220, the growth inhibition call is “inactive”.
As to `C=C1CC[C@@H]2C(C)(C)CCC[C@@]2(C)[C@@H]1CC/C(C)=C/C(=O)OC`, the cytotoxicity call with HSkMC and with HepG2 was “inactive” throughout. Further, the growth inhibition call in the assay with S. aureus RN4220 is “inactive”.
Take `CN(C)CC(=O)N[C@@H]1C=C[C@H](CC(=O)NCCN2CCCCC2)O[C@@H]1CO`: the cytotoxicity call with HSkMC and in the assay with HepG2 was “inactive” in each case. The growth inhibition call in the assay on S. aureus RN4220 was “inactive”.
As for `c1ccc2[nH]c(-c3ccncc3)nc2c1`, the cytotoxicity call in the assay with HSkMC and with HepG2 was “inactive” throughout. For the same molecule, the growth inhibition call with S. aureus RN4220 was “inactive”.
Consider `O=C(C[C@H]1CC[C@H]2[C@@H](COC[C@@H](O)CN2S(=O)(=O)c2ccccc2)O1)NCc1ccc(-c2ccccc2)cc1`, for which the cytotoxicity call with HSkMC and in the assay with HepG2 was “inactive” each time. In addition, the growth inhibition call with S. aureus RN4220 was “inactive”.
As to `COCC#Cc1ccc2c(c1)O[C@H](CN(C)Cc1ccc3c(c1)OCO3)[C@@H](C)CN([C@H](C)CO)S2(=O)=O`, the cytotoxicity call in the assay with HSkMC and with HepG2 was “inactive” each time. For the same molecule, in the assay with S. aureus RN4220, the growth inhibition call is “inactive”.
Consider `COc1ccccc1S(=O)(=O)N(C)C[C@@H]1OCc2cnnn2CCCC(=O)N([C@@H](C)CO)C[C@H]1C`, for which the cytotoxicity call with HSkMC and in the assay on HepG2 was “inactive” each time. Further, in the assay on S. aureus RN4220, the growth inhibition call was “inactive”.
Turning to `CC1(C)CN(C(=O)Cn2nccn2)C[C@]1(C)O`, the cytotoxicity call in the assay with HSkMC and with HepG2 was “inactive” in each case. Moreover, the growth inhibition call in the assay on S. aureus RN4220 was “inactive”.
In the case of `C[C@H]1CN([C@@H](C)CO)C(=O)c2cccc(NS(=O)(=O)c3ccccc3)c2O[C@H]1CN(C)S(=O)(=O)c1cccs1`, the cytotoxicity call in the assay on HSkMC and in the assay with HepG2 was “inactive” in each case. Moreover, the growth inhibition call in the assay on S. aureus RN4220 is “inactive”.
`Cc1noc(C)c1S(=O)(=O)Nc1ccc2c(c1)C(=O)N([C@@H](C)CO)C[C@H](C)[C@@H](CN(C)S(=O)(=O)c1ccc(Cl)cc1)O2`: the cytotoxicity call in the assay with HSkMC and in the assay with HepG2 was “inactive” each time. Further, the growth inhibition call with S. aureus RN4220 is “inactive”.
On to `C[C@H]1CN([C@@H](C)CO)C(=O)c2cc(C#CCN(C)C)cnc2O[C@@H]1CN(C)S(C)(=O)=O`, for which the cytotoxicity call with HSkMC and in the assay on HepG2 was “inactive” throughout. Besides, the growth inhibition call with S. aureus RN4220 is “inactive”.
Consider `COc1ccc(NC(=O)Nc2ccc3c(c2)C(=O)N([C@H](C)CO)C[C@H](C)[C@H](CN(C)S(=O)(=O)c2ccc(OC)cc2)OCCCC[C@H](C)O3)cc1`, for which the cytotoxicity call with HSkMC and with HepG2 was “inactive” in each case. The growth inhibition call in the assay with S. aureus RN4220 is “inactive”.
Regarding `C[C@@H]1CN([C@@H](C)CO)C(=O)Cc2cc(NC(=O)Cn3cnnn3)ccc2O[C@@H]1CN(C)Cc1ccncc1`, the cytotoxicity call in the assay on HSkMC and with HepG2 was “inactive” throughout. Moreover, the growth inhibition call in the assay with S. aureus RN4220 was “inactive”.
As to `C[C@@H]1CN([C@@H](C)CO)C(=O)c2cc(C#Cc3ccccn3)cnc2O[C@H]1CN(C)C(=O)CCN1CCCCC1`, the cytotoxicity call in the assay with HSkMC and in the assay on HepG2 was “inactive” in each case. For the same molecule, in the assay with S. aureus RN4220, the growth inhibition call was “inactive”.
Turning to `CCN(CC)CCOC(=O)C1(C2CCCCC2)CCCCC1.Cl`, the cytotoxicity call in the assay with HSkMC and in the assay on HepG2 was “inactive” throughout. Also, the growth inhibition call in the assay with S. aureus RN4220 was “inactive”.
Take `C[C@H]1CN([C@@H](C)CO)C(=O)c2cc(NS(=O)(=O)c3ccccc3)ccc2O[C@@H]1CN(C)S(=O)(=O)c1cn(C)cn1`: the cytotoxicity call in the assay on HSkMC and in the assay with HepG2 was “inactive” each time. In the assay on S. aureus RN4220, the growth inhibition call is “inactive”.
Regarding `C[C@@H]1CN([C@@H](C)CO)C(=O)c2cc(NS(C)(=O)=O)ccc2O[C@H]1CN(C)C(=O)Nc1ccc2c(c1)OCO2`, the cytotoxicity call with HSkMC and in the assay on HepG2 was “inactive” in each case. For the same molecule, the growth inhibition call in the assay with S. aureus RN4220 was “inactive”.
Take `COc1ccc(NC(=O)Nc2ccc3c(c2)C(=O)N([C@H](C)CO)C[C@@H](C)[C@H](CN(C)C(=O)Cc2ccccc2)OCCCC[C@H](C)O3)cc1`: the cytotoxicity call with HSkMC and in the assay on HepG2 was “inactive” in each case. Besides, in the assay with S. aureus RN4220, the growth inhibition call is “inactive”.
Turning to `COc1ccc(S(=O)(=O)N(C)C[C@H]2OCc3cn(nn3)CCCC(=O)N([C@@H](C)CO)C[C@@H]2C)cc1`, the cytotoxicity call in the assay with HSkMC and with HepG2 was “inactive” throughout. Besides, the growth inhibition call in the assay with S. aureus RN4220 is “inactive”.
Turning to `O=C(C[C@@H]1CC[C@H]2[C@@H](COC[C@@H](O)CN2S(=O)(=O)c2ccc(Cl)cc2)O1)NCCN1CCCC1`, the cytotoxicity call in the assay on HSkMC and in the assay with HepG2 was “inactive” in each case. Besides, the growth inhibition call in the assay on S. aureus RN4220 was “inactive”.
As for `COc1ccc(S(=O)(=O)Nc2ccc3c(c2)C(=O)N([C@@H](C)CO)C[C@H](C)[C@@H](CN(C)Cc2ccc(Cl)c(Cl)c2)OCCCC[C@@H](C)O3)cc1`, the cytotoxicity call in the assay with HSkMC and with HepG2 was “active” in each case. The growth inhibition call in the assay on S. aureus RN4220 is “inactive”.
Turning to `C=CC(=O)NCCN1CCCCC1`, the cytotoxicity call in the assay with HSkMC and in the assay on HepG2 was “inactive” each time. For the same molecule, the growth inhibition call in the assay on S. aureus RN4220 was “inactive”.
`CC(C)CC#Cc1cnc2c(c1)C(=O)N([C@@H](C)CO)C[C@@H](C)[C@@H](CN(C)S(=O)(=O)c1cn(C)cn1)O2`: the cytotoxicity call in the assay with HSkMC and in the assay with HepG2 was “inactive” in each case. In addition, the growth inhibition call with S. aureus RN4220 is “inactive”.
With `CN1[C@@H]2Cn3c(ccc(-c4ccccc4)c3=O)[C@H]1[C@@H](C(=O)NCCCN1CCOCC1)[C@@H]2CO`, the cytotoxicity call in the assay with HSkMC and with HepG2 was “inactive” in each case. In the assay on S. aureus RN4220, the growth inhibition call is “inactive”.
Regarding `COc1ccc(S(=O)(=O)N[C@H]2CC[C@H](CCNC(=O)CN3CCOCC3)O[C@H]2CO)cc1`, the cytotoxicity call in the assay with HSkMC and in the assay on HepG2 was “inactive” each time. In addition, the growth inhibition call in the assay on S. aureus RN4220 was “inactive”.
With `C[C@@H]1CN([C@@H](C)CO)C(=O)c2cc(NC(=O)Cn3cnnn3)ccc2O[C@H]1CN(C)S(=O)(=O)c1ccccc1`, the cytotoxicity call in the assay on HSkMC (human skeletal muscle cells) and in the assay on HepG2 was “inactive” throughout. Further, the growth inhibition call in the assay with S. aureus RN4220 was “inactive”.
